Laboratory results from ChEMBL document CHEMBL4888484, “Replenishing the malaria drug discovery pipeline: Screening and hit evaluation of the MMV Hit Generation Library 1 (HGL1) against asexual blood stage Plasmodium falciparum ,using a nano luciferase reporter read-out” (2022).
Among all 150,000 compounds or so, about 540 (0.36%) showed an effect of 50% or more. The list shows a part of the results.

test system: Plasmodium falciparum; assay: Primary screen in NF54 nanoGlo assay, in single point, at 2uM, 72h; a lower Z score goes with more inhibition; format: functional, Erythrocyte; details: timepoint 72 hour

| Compound | % Inhibition [%] | Z score |
| --- | --- | --- |
| CC(C)(C)NC(N)=NCc1ccsc1 | -17 | 3.1 |
| O=C(NCCOc1ccccc1)c1ccc(CNS(=O)(=O)c2ccc3ccccc3c2)cc1 | -1 | 0.23 |
| COc1ccc([C@H]2C[C@H]3CC[C@@H](C2)N3C(=O)C2CCN(C(C)=O)CC2)cc1 | -4 | 0.95 |
| CN1C[C@@H](NC(=O)N2CCCC2)C[C@H]1C(=O)NCc1ccncc1 | 2 | -0.47 |
| CCn1c(=O)c2sc(N3CCCC3)nc2n(CC(=O)Nc2ccc(F)cc2)c1=O | -21 | 1.89 |
| CN1C(=O)[C@@H](c2ccccc2)CC12CCN(C(=O)c1ccccc1O)CC2 | -14 | 1.29 |
| Cc1nc(-c2ccccc2)n(CC(=O)Nc2ccc3c(c2)OCO3)c(=O)c1Cl | -3 | 0.66 |
| Cc1cccc(C(=O)N2C[C@H](F)C[C@H]2C(=O)N2CCOCC2)c1C | -10 | 1.39 |
| Cc1cccc(NC(=O)COc2cccc(-c3noc(COc4cccc(C)c4)n3)c2)c1 | 14 | -1.77 |
| COC(=O)c1ccc(CCC(=O)N[C@H]2CCCCNC2=O)cc1 | -4 | 0.51 |
| COc1ccc(-c2cc(-c3nc4ccccc4[nH]3)c(-c3ccccc3)nn2)cc1OC | 3 | -0.62 |
| CCCC1(CCC)CCC(CCC)(CCC)N1 | -15 | 2.07 |
| Cc1nc2ccccc2c(-c2ccc(Cl)cc2)c1C1=NN(C(=O)C(C)(C)C)[C@H](c2ccc(Cl)cc2)C1 | -2 | 0.21 |
| CCC(CC)NS(=O)(=O)CC1CCCCC1 | -3 | 0.32 |
| Cn1cc([C@@H]2CC(=O)Nc3c2c(=O)[nH]n3C2CCCCCCC2)cn1 | -13 | 1.71 |
| Cc1ccc(CNC(=O)Cn2nnc(C(=O)Nc3cc(Cl)ccc3C)c2C)cc1 | 29 | -3.27 |
| CCc1cc(=O)n2nc(NC(=O)C[C@H](n3cccn3)C(F)(F)F)[nH]c2n1 | -15 | 2.81 |
| COc1cc(-c2nc(C(=O)N(C)C(C)C)cs2)ccc1OCc1ccc(F)cc1F | 5 | -0.91 |
| CC(C)Cn1c(=O)n(C[C@H](C)N2CCCC2)c2cc(C(=O)O)cnc21 | 0 | -0.01 |
| c1ccc(N2CCN(c3ncnc4c3CCC4)CC2)cc1 | -13 | 1.38 |
| Cc1ccc(C(=O)N2CCC(c3nnco3)CC2)c(Cl)c1 | -13 | 1.46 |

| Compound | % Inhibition [%] | Z score |
| --- | --- | --- |
| Cn1cc([C@@H]2CNCCN2C(=O)c2cccc(F)c2F)cn1 | -1 | 0.06 |
| Cn1cccc1C(=O)NC(=O)Cn1cnc(C#N)n1 | -7 | 1.04 |
| O=C(Cc1c[nH]c2ccccc12)N[C@H]1CCCN(c2cc(-c3ccccc3)n[nH]2)C1 | -12 | 1.24 |
| O=S(=O)(NCCCn1cccn1)N1CCCCC1 | -8 | 1.1 |
| CCCN(CCC)C(=O)NC(=O)c1ccccc1 | -8 | 1.44 |
| C[C@@H]1CN(C(=O)CN(C)Cc2cc[nH]n2)C[C@H](C)O1 | -8 | 1.58 |
| COc1ccc(N/C(=N/S(C)(=O)=O)NC2CCCCCC2)cc1OC | 4 | -0.52 |
| CCN(CC)[C@@H](CNC(=O)CCc1c(C)nn(C)c1C)c1ccco1 | 33 | -4.43 |
| NC(=O)c1ccc(C(=O)N[C@H]2CC[C@H](Nc3nccc(C(F)(F)F)n3)CC2)[nH]1 | 12 | -1.88 |
| N#Cc1ncn(CC(=O)N[C@@H]2C[C@H]2C2CCCCC2)n1 | 4 | -0.55 |
| Cc1ccc(C2OCCCC2NC(=O)c2ccc(C(=O)O)nc2)cc1 (centres undefined) | 6 | -0.82 |
| c1ccc(C[C@H](NCCCc2nnn[nH]2)C2CCCCC2)cc1 | -8 | 1.11 |
| CCN(CC)C(=O)c1csc(-c2ccc(OCc3cc(F)ccc3F)c(OC)c2)n1 | -11 | 1.99 |
| Cc1nnsc1CN(C)C(=O)c1cc2ccccc2n1C | -14 | 2.35 |
| Cc1ccsc1-c1nc(CN2CCc3c(c(CO)nn3C)C2)c(C)o1 | 2 | -0.41 |
| CN(Cc1ccc(-c2cc(C(C)(C)C)nc(N)c2C#N)o1)S(C)(=O)=O | -13 | 2.23 |
| O=C(Nc1cc(-c2ccccc2)ns1)c1ccco1 | -4 | 0.42 |
| O=C(C[n+]1nc(-c2n[n+](CC(=O)c3ccccc3)c3n2CCCCC3)n2c1CCCCC2)c1ccccc1 | 6 | -1.08 |
| N=C(NC(=O)c1ccccc1F)Nc1nc2ccccc2o1 | 1 | -0.05 |
| CCCN(Cc1cccnc1)C(=O)c1cnc(-c2csc(C)n2)nc1O | -6 | 1.19 |
| O=C(c1nc2ccccc2[nH]1)N1CC[C@H](N2CCCCC2)C1 | -6 | 0.59 |
